Results taken from PMC4336329 (PLoS ONE, 2015).
About 14,000 (4.5%) of roughly 310,000 compounds showed an effect of 50% or more. The effect is printed as a negative number. The list shows a part of the results.

target: human ether-à-go-go-related gene (hERG) potassium channel (human, UniProt Q12809); assay: primary screen, population patch clamp on CHO cells stably expressing hERG
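Note: peak tail current of the secondary pulse compared with the same well before compound.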

Sequence of human ether-à-go-go-related gene (hERG) potassium channel (Q12809 whole entry, looked up): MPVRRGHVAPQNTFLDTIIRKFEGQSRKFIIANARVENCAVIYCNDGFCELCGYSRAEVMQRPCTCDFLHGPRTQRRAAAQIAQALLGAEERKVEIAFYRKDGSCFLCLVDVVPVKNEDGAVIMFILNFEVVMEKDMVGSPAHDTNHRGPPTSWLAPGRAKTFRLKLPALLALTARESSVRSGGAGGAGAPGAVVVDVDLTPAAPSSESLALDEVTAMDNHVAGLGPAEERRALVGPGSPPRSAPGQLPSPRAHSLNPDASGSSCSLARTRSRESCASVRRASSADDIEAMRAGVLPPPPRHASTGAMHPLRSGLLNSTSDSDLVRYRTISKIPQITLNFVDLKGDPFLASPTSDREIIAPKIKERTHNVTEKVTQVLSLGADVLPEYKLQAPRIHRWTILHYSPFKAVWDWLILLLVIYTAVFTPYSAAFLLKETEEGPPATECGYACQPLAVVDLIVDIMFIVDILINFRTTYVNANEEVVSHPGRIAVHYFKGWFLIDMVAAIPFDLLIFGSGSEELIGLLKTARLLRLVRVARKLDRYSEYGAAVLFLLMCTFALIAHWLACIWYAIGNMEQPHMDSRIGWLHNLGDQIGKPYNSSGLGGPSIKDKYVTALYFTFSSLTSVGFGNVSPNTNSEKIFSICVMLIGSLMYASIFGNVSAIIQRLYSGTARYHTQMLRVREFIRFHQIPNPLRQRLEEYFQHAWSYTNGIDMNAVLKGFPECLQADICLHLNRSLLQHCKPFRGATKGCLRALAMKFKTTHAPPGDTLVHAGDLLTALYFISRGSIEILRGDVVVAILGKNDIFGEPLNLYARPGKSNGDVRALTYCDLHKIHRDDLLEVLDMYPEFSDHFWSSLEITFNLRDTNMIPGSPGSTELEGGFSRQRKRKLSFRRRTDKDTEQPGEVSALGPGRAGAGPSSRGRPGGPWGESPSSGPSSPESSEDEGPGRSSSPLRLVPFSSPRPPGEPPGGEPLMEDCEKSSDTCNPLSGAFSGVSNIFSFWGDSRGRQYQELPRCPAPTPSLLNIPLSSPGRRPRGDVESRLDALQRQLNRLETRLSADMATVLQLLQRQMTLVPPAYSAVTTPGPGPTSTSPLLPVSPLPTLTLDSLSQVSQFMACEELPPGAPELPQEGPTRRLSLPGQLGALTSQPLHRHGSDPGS

Structure (SMILES)	hERG current change (%, negative = inhibition) at 10uM [%]
O=C(NNC(=O)c1cc(Br)ccc1Cl)c1csc(N2CCOCC2)n1	4.26
CCOc1ccc(C2/C(=C(\O)c3ccc4c(c3)OCCO4)C(=O)C(=O)N2Cc2cccnc2)cc1OCC (centres unmarked)	16.9
CC(=O)Nc1ccc(C(=O)Nc2cccc(S(=O)(=O)NC3=NCCC3)c2)cc1	4.95
COc1cccc(CNC(=O)CCNS(=O)(=O)c2ccc3[nH]c(=O)oc3c2)c1	12.3
COc1ccc(OC)c(N(C(=O)c2ccco2)C(C(=O)NC2CCCC2)c2ccc(N3CCOCC3)cc2)c1 (centres unmarked)	-6.21
O=C1CC(N2CCC(c3nc4ccccc4o3)CC2)C(=O)N1c1cc(Cl)cc(Cl)c1 (centres unmarked)	-15.4
Cn1c(SCC(=O)N/N=C/C=C/c2ccco2)nc2ccccc21	-42.9
CSCC[C@H](NC(=O)OC(C)(C)C)C(=O)N1CCC(C(=O)NCC(=O)Nc2ccc(C)cc2)CC1	1.48
O=C(c1cc(-c2ccc(O)cc2)on1)N1CCCc2ccccc21	-29.5
C/C(=N/OCO/N=C(\C)c1ccccc1)c1ccccc1	2.27
O=S(=O)(O)c1ccc(SCc2ccccc2)nc1	13.5
Cc1nc(NC2=NCN(CCCN3CCOCC3)CN2)nc2c(C)cccc12	2.1
O=C(Nc1cccc(S(=O)(=O)N2CCCC2)c1)c1cccc(S(=O)(=O)N2CCOCC2)c1	-15.5
Cc1cccc(NC(=S)NC(=O)c2oc3ccccc3c2C)n1	24.1
COc1cc(/C=C2\SC(=S)N(CCC(=O)Nc3ccccn3)C2=O)cc(OC)c1OC	8.6
COc1cc(/C=N/NC(=O)c2ccc(N)cc2)ccc1OC(=O)c1cccc(C)c1	6.14
O=C(NCc1ccco1)c1ccc2[nH]c(=O)c(=O)[nH]c2c1	8.58
Cc1cc(C)cc(-n2nnc(C(=O)NCc3ccc4c(c3)OCO4)c2N)c1	-8.45
Cc1ccc(N2CCN(C(=O)c3ccccc3NC(=O)c3ccccc3C(=O)O)CC2)cc1	-2.27
O=C(O)Cn1cc(C(=S)N2CCCCC2)c2ccccc21	35
COc1ccc(C)cc1NC(=O)COC(=O)c1c(C)nn(-c2ccccc2)c1C	-3.03
C=CCc1cc(C)ccc1OCC(O)CN1CCN(c2ccccc2)CC1 (centres unmarked)	-47.5

Structure (SMILES)	hERG current change (%, negative = inhibition) at 10uM [%]
O=[N+]([O-])c1ccc2c(c1)nc1n2CCN(c2ccccc2)C1	-26.1
Cc1ccc(-c2nnn(CCC(=O)NC(C)(C)C)n2)cc1	12.2
Cc1ccc(C(=O)NCc2ccc3c(c2)OCO3)cc1Cl	17.9
O=C(N/C(=C\c1cccs1)C(=O)N1CCCCCC1)c1ccccc1	-32.3
CCN1C(=O)N(c2ccc(Cl)cc2)C(C)=CC1(C)C	6.6
CCCC(=O)N1CCN(c2ccc(NC(=O)c3ccc(N4CCCC4)c([N+](=O)[O-])c3)cc2Cl)CC1	-30.4
COCCCNC(=O)/C(C#N)=C/c1cc(C)[nH]c1C	-5.07
O=C(NNC(=O)c1ncc(Cl)c(Cl)c1Cl)c1ccc(F)cc1	14.5
Fc1cc2[nH]c(=S)[nH]c2c(Br)c1N1CCSCC1	17.6
COc1ccc(C2CC(c3cccs3)=NN2C(=O)CSC2=NCCS2)cc1 (centres unmarked)	-11
CCOC(=O)Cc1csc(NC(=O)CSc2nnnn2-c2ccc(C)c(C)c2)n1	13.2
Cc1ccc(C)c2[nH]c(=O)c(CN(CCN3CCCC3)C(=O)Nc3ccc(F)cc3)cc12	-75.7
CCOc1ccccc1OCCCC(=O)Nc1nc2ccccc2[nH]1	5.1
O=C(CSc1ncc(-c2ccc(F)cc2)n1Cc1ccco1)Nc1ccc2c(c1)OCO2	10.2
CCOC(=O)C1=C(N)OC2=C(C(=O)CC(C)(C)C2)C1C1CCCCC1 (centres unmarked)	-5.17
COc1ccc(-n2ccnc(SCC(=O)NC3CCCCC3)c2=O)cc1	17.1
Cc1cc(C)cc(OCC(=O)Nc2ccc(N3CCN(C(=O)c4ccco4)CC3)cc2)c1	-45.8
COc1ccc(NC(=S)NCCN2CCOCC2)cc1	21.7
CC(=O)N1CCC(N(CCN2CCOCC2)C(=O)Nc2ccc(Cl)c(Cl)c2)CC1	-21.7
Cc1cc(N/N=C/c2ccc(O)cc2O)nc(-n2nc(C)cc2C)n1	3.01
O=C(Nc1ccccc1)N1CCC(c2ccccc2)C1 (centres unmarked)	-4.49
CCCCN(CC)CCCNC(=O)c1cc2c(-c3ccc(OC)c(OC)c3)nn(C)c2s1	-7.25
